Measured values published in PubChem BioAssay AID1347043 (National Center for Advancing Translational Sciences (NCATS), 2019).
The campaign covered roughly 76,000 compounds. About 1,900 (2.5%) were called active. The shares of active, inactive and inconclusive entries below differ from those in the screen. Calls come from the whole dose curve; as a rule, active = well fitted inhibition curve with a large enough effect; inconclusive = small, poorly fitted or top-dose-only effect; inactive = flat fitted curve, though single readings scatter. Potencies of inconclusive entries are doubtful fits and often do not repeat.

target: Luciferin 4-monooxygenase (Photinus pyralis) (UniProt P08659); test: Firefly luciferase inhibition profiling of diverse chemical library using quantitative high-throughput screening; note: nearly all actives have a fitted effect of over 65% in size; settings: purified P. pyralis luciferase, luminescence, biochemical; series mostly up to 115 µM
Summary of the method: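 Luminescence read by CCD imager after adding enzyme (10nM final) to wells holding compound, titrated in qHTS. Substrates 10uM each D-luciferin and ATP; buffer 50mM Tris acetate pH 7.5, 10mM Mg acetate, Tween-20, BSA.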
Potency is the fitted concentration of half-maximal effect; tags give direction and shape of the fitted curve.

Sequence of UniProt P08659 (P08659 whole entry, looked up): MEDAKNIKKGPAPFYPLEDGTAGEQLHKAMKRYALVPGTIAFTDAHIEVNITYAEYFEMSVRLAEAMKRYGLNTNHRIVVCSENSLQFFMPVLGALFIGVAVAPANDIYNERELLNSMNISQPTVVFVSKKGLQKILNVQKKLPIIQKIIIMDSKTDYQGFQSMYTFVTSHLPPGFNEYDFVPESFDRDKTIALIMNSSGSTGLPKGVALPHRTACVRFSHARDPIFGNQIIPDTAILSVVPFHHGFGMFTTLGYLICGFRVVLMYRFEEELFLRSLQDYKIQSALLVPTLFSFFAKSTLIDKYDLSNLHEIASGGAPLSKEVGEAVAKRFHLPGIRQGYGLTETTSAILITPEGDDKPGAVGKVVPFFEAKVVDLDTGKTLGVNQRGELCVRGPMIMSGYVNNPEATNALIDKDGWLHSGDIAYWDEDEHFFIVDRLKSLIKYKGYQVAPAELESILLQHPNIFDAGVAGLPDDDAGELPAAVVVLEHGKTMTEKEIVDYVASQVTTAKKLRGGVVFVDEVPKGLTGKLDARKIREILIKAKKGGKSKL

| SMILES | Potency |
| --- | --- |
| COc1ccc(S(=O)(=O)NC[C@H]2COCc3nc4c(C)cccc4n32)cc1 | inactive |
| O=C([C@@H]1C[C@@H](O)[C@H](O)[C@@H]2NC(=S)N(c3ccc4c(c3)OCO4)[C@@H]21)N1CCOCC1 | active: 5.01 µM |
| O=C(N[C@H]1CCN2C(=O)c3cc(-c4ccsc4)ccc3NC(=O)[C@H]12)C1CCCC1 | inconclusive: 126 µM [inhibitor, partial curve, poor fit] |
| O=C(C1=NO[C@@H]2CN(c3ccc(OC(F)(F)F)cc3)C[C@H]12)N1CCOCC1 | inactive |
| COc1ccc(C[C@H](NC(=O)[C@@H]2C[C@H](NC(=O)Nc3cccc(OC)c3)CN2C(=O)c2cccn2C)C(N)=O)cc1 | inactive |
| CCCNC(=O)c1ccc2c(c1)CC(=O)N2Cc1cccc(F)c1 | inconclusive: 39.8 µM [inhibitor, partial curve] |
| Cc1ccc(-c2noc([C@@H]3Cc4nc[nH]c4CN3Cc3ccc(F)cc3)n2)cc1 | active: 50.1 µM |
| Cn1nccc1C(=O)N1CCC2(CCCCO2)CC1 | inconclusive: 56.2 µM [inhibitor, partial curve] |
| O=C1NCCCC[C@@H]1Nc1ccc(-c2nc(COc3ccccc3)no2)cn1 | inconclusive: 56.2 µM [inhibitor, partial curve] |
| CC(Cc1cnccn1)NC(=O)c1ccc2nc(-c3ccc(F)cc3)cn2c1 (centres undefined) | active: 39.8 µM |
| CCC1=C(C(=O)OC)C(c2ccccc2F)N2C(CC(=O)NCC3CCCO3)=CSC2=N1 (centres undefined) | inactive |
| COc1ccc(-c2ccc3c(c2)C(=O)N2CC[C@H](NC(=O)COCC(=O)O)[C@H]2C(=O)N3)cc1 | inconclusive: 50.1 µM [inhibitor, partial curve] |
| CCn1cc(-c2cc3c(cn2)CN(Cc2ccncc2)CCN3)cn1 | inconclusive: 100 µM [inhibitor, partial curve, poor fit] |
| CCC1Oc2ccc(NC(=O)c3ccc4c(c3)OCO4)cc2CN(Cc2ccccc2)C1=O (centres undefined) | inactive |
| O=C(NCc1cccc(F)c1)c1ccc2c(c1)CC(=O)N2Cc1ccccc1 | inconclusive: 44.7 µM [inhibitor, partial curve] |
| COc1cccc(C(=O)NC[C@@H]2CC[C@H]3C[C@@H]2C3(C)C)c1 | inactive |
| Cc1ccc(C(=O)N2CCCC(c3nc(-c4ccccc4)no3)CCNC(=O)CC2)cn1 (centres undefined) | active: 28.2 µM |
| Cc1noc([C@@H]2C[C@H](NS(=O)(=O)c3cccc4cccnc34)CN2C)n1 | inactive |
| Nc1nc(C2CC(NC(=O)c3csc4c3CCCC4)C2)cc(=O)[nH]1 (centres undefined) | inconclusive: 79.4 µM [inhibitor, single point] |
